± gives the standard deviation of the averaged measurements. The full ranking holds about 4,100 sequences; the median of “arbitrary fluorescence units” is about 780, and the highest 2% start at about 22,000. The list shows a part of the results.

In this assay the target is T1, ETS1 (UniProt P14921).
T1 sequence: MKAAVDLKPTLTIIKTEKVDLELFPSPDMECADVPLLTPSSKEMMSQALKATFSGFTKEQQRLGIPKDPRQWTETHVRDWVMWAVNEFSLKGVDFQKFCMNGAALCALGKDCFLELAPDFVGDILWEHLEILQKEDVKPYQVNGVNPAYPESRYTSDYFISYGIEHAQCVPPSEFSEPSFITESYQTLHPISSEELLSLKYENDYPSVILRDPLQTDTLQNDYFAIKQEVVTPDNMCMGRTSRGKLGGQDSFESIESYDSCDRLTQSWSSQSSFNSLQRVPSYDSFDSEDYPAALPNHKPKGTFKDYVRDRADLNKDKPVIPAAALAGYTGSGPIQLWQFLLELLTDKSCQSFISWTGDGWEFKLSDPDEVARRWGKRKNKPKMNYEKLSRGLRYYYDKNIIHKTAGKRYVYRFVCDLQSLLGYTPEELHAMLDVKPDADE
Description: ETS1 binding intensity (PBM fluorescence), ETS1 alone (arbitrary fluorescence units); higher = stronger binding. The conditions noted are these: ETS1 concentration 1 nM; RUNX1 concentration 0 nM. An outline of the steps: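 Recombinant full-length human ETS1 was applied at 1 nM, without RUNX1, to double-stranded Agilent 4 × 180k arrays of 36-bp genomic probes carrying a mutated RUNX1 partner site, following standard PBM protocols. Detection used an anti-ETS1 antibody (Cell Signaling Technology 14069) and an Alexa488-conjugated secondary antibody, with scanning on a GenePix 4400A. Each sequence was printed as four replicate spots. Binding level is the spot fluorescence intensity, summarised across replicates and not normalised.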
TTACAATCATTTCCTCTCTGTGCTTTGGTGACAAAT showed an ETS1 binding intensity of 7610.

On to TACCCTTGTAGGCCCCCCGGCGACGCTTCCTGCTCC, for which the ETS1 binding intensity was 487.

Sequence TGGGCTTCTCTGTAGGTGTGGCGGGAAGTAGATGAA had an ETS1 binding intensity of 362.

For TTTGATCTTTGGGAAGTGGCCTGTCGTTCTTATCAC, the ETS1 binding intensity amounted to 511.

In turn, TAGAACTTCCTCAGACCACCTCCGCCGTAGTCTGCA gave an ETS1 binding intensity of 2800.

Turning to AGCCCTAAACAACAGCTGAACCACTTCCTGTCACTG, the ETS1 binding intensity amounted to 6370.

On to GCTGAGGGCTGTCTTCACCTCAGACGGGAAGCTGCT, for which the ETS1 binding intensity stood at 399.

Turning to TAGAAGGCAGGGGTCTGAGTTCCGGAGTAGAAGGCA, the ETS1 binding intensity came out at 812.

Consider GTGGGCTGTCGTTAGGAGACAGGAAGGAGAATGCCA, for which the ETS1 binding intensity was 857.

The sequence CATTCATGTAGCTTATAGGCACATCCTGCCTGCCTA had an ETS1 binding intensity of 2700.

With GACAGGAAGTGACCTCAATTTCCCCGGCCAGAGAAA, the ETS1 binding intensity worked out at 12100.

The sequence GGCGGCGGGCTGCAGGCGCGGCCGGACGGGAGTTCG gave an ETS1 binding intensity of 327.

Take CCCGGCCCAGGAAACTTCAGACTTCACCGAAGCTTC: the ETS1 binding intensity came out at 524.

Consider TTTCACTTCCGGCATGTTTTTCACCTACAGGGATAT, for which the ETS1 binding intensity worked out at 35500.

As for ACACCTCAGGAAGTGGCAGAGACTACAACAAGTCAG, the ETS1 binding intensity amounted to 1680.

The sequence CCTCTGAGCTGTGATAACACCACTTCCTCCACTCCA gave an ETS1 binding intensity of 1150.

The sequence TCGGAACGGAACGGAGCAGAGTCGTGCGTGGATGAG returned an ETS1 binding intensity of 370.

CCGACAGGATGGGTGAGCTGTCGTGGCCGGTTTAAG registered an ETS1 binding intensity of 678.

AAGGTGGCGGCTCACAGAGGCCGGACGTCCTCCGGG came in with an ETS1 binding intensity of 469.

GTCTGAGGTACCTCGCCACGCCCCCGCCCTTCCGGT: the ETS1 binding intensity worked out at 980.

Consider GTTGCCTTTCTGAGGTGGAGGAGGAAGTGTTGGATT, for which the ETS1 binding intensity came to 576.

GCCGGGAATGCGAGCTCTCCTGCCGGAAGCTGCCCC had an ETS1 binding intensity of 862.

In turn, GGGGGCAGGAAGCAGTGCAGCTCCTTAACTCACTTC had an ETS1 binding intensity of 1950.

AACAACAGGATGCTCTCTAGTCTAACAGTGGCAACA displayed an ETS1 binding intensity of 2640.

TGGCCATGGACAGCGAAGGCTTCCTCTACTGCCGCT: the ETS1 binding intensity is 406.

Regarding TCAATGACAGGAAGTTTTTAAATCACATACGGCTAA, the ETS1 binding intensity is 2370.

With GTCTTTCACTCCACTTCCGCCCCCACGAAACATACA, the ETS1 binding intensity is 11100.

For GCGCAGAAAGCTGCAGTCCCTCTGCGGAAGGCGCCG, the ETS1 binding intensity turned out to be 327.

AGGCAAACTACAGGAAGATCCTGCCCGAAACTTGGT had an ETS1 binding intensity of 603.

Regarding TCCCCTCTCCCCATCCGCCCGAGACAACAGCCACTC, the ETS1 binding intensity turned out to be 1080.

Regarding ACTGCTCAAACCCCAAACGATAGCAGGAAAGGCCTG, the ETS1 binding intensity was determined as 376.

In the case of TGTTTGTTTCCGAAGATTAGCCAGCCTGCAGTAGAG, the ETS1 binding intensity stood at 562.

Take AACAGTACTTCCGGGGCAAGTGAGCGCCTACAAGGC: the ETS1 binding intensity is 30400.

For GTGGGAGCGGAAGCCTGAGCGGCCTACGGCCTCCGG, the ETS1 binding intensity was 1420 ± 98.

As for TTGCCATTCCAGGAAATGAGCTTACGACATTGACTG, the ETS1 binding intensity stood at 1610.

ACAAGGAGGAAAAGGAAATGAACCATGAATAGCAAA had an ETS1 binding intensity of 1810.

On to AGTTGCTAAGGAAATGACTGCCTGCAGCGCCTGGCC, for which the ETS1 binding intensity was 610.

In turn, GCGGGCTATCCGGTCCTCGGCTGCAGCGGGCACCAT had an ETS1 binding intensity of 2430.

GCTTTTGGCGGCTGCGCGGGCTTCCTGGAGTCCTGC showed an ETS1 binding intensity of 684.

On to CTGCTTTGCCTGCAGCGCTCCGGAACACCCGGCTAC, for which the ETS1 binding intensity stood at 333.

In the case of AGACCCGGACCGGAACCTTGGCGCGGCGACGCTAGT, the ETS1 binding intensity came out at 1170.

Consider TTCTTAGCAGAGGAAGCTGTTTGGGGGGAAAAAGGG, for which the ETS1 binding intensity is 673.

Regarding GATTTCATGTTTGGGGTTTAACTTCCGTAGCTTGGG, the ETS1 binding intensity was 889.

CTAGCAGCTTCCGAGGGGGCGGCGGCCGGAGCGAGT: the ETS1 binding intensity turned out to be 784.

In turn, AGCCAGGAAATCCGCACCTACACAGCCCAACCCCAG had an ETS1 binding intensity of 1760.

With CTGGTGCTCACAGGACAAATGTCATCCTGTATGTAT, the ETS1 binding intensity was 589.

CCCACCCGGAAATGAGCCAACAGTGCTTTCGCCCCG: the ETS1 binding intensity is 5510.

For CGGGCAGACTACGGCCCTGGACGGGAAGCGGCGGCC, the ETS1 binding intensity came to 377.

CACTTCCTGCCCTCTTCCACTTTCAAAATCACATCA registered an ETS1 binding intensity of 31900.

With ATGGCAACCCCAGTCTGTAACCGACACCGGAAGCGA, the ETS1 binding intensity is 2390.

On to GTATTTATTTCCTCTTCGAAGAAATTCGGGGGTGCC, for which the ETS1 binding intensity turned out to be 3780.

On to CTGGGCTTCCTCTTCAGGCATGCGCCGTGGACCTGC, for which the ETS1 binding intensity was 1680.

On to TCCCCCTTCCCTCAGCTCCTCTTCCGCGTCCTCCCC, for which the ETS1 binding intensity came to 511.

On to TGGGGGACGGGACCTCGGGAACCCGGAAACGCCTGG, for which the ETS1 binding intensity came out at 1220.

TGGAACAGCGACAGGAGACTCGCGTGTTCCGGGGAG: the ETS1 binding intensity was 327.

Regarding TTGAGCGCAGGAACTCAACCTCCCCCGGAACTCAAC, the ETS1 binding intensity was 379.

GGGAGGAGGAAGGGGCTGTGTCTGGGAGTTGGGGGC displayed an ETS1 binding intensity of 788.

CTGTTGTAGTTGCTGCGACAATGCTCCAGGAAGGGT had an ETS1 binding intensity of 475.

In the case of GAAGGGAGGAAGCCTGAGAACTGTTGTCTCCTGAAG, the ETS1 binding intensity stood at 424.

TTCGCTCCCTGAATCGCGTCGCTTCCTGAGCCGCGC registered an ETS1 binding intensity of 454.

ACAGGAAGTGTCTCTATAGAAACCAAATCACAGAAA: the ETS1 binding intensity came to 1770.

Regarding GGGGAAGAGGAAGCTGTGTCCACGGTGCAAGGGGTT, the ETS1 binding intensity stood at 844.

CCTTGCTTTCCGGGGACTGCCTGGGACAACCTCGCA showed an ETS1 binding intensity of 1540.

The values above are taken from the supplement of paper PMC10681739.
